About 10 (0.8%) of roughly 1,200 compounds were called active. Another 4% or so got no clear call; they are omitted. Calls follow the shape of the dose curve; as a rule, active = well fitted inhibition curve with a large enough effect; inconclusive = small, poorly fitted or top-dose-only effect; inactive = no such curve, though single readings can be large or run the other way. Some of the results follow.
experiment: qHTS Assay to Find Inhibitors of Chronic Active B-Cell Receptor Signaling: Hit Validation in OCI-Ly3 Assay; details: OCI-Ly3 IkB-luciferase reporter, Chroma-Glo luminescence, 4 h; series mostly up to 46.1 µM; activity change, negative = inhibition: at the top concentration
Method in brief: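 Readout is dual-colour luminescence: IkB-alpha-luciferase fusion (green) against unfused luciferase (red), plus their ratio, scaled between basal cells and 10 uM MG-132. OCI-Ly3 cells, 0.5% FBS IMDM, compound with doxycycline (80ng/ml solution), 4 hrs at 37C; curves fitted and classed.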
% is scaled to controls: 0 for no effect and ±100 for the full control effect.

Activity change, negative = inhibition, inactive:
COCCCNC(=O)C(=O)Nc1ccc2c(c1)N(S(=O)(=O)c1cccs1)CCC2 -0.939%
CCN(CC(=O)Nc1cc(Cl)ccc1C)C(=O)C1CC1 -0.432%
COc1ccc(CCNCC(O)COc2cccc(Br)c2)cc1 (centres undefined) 0.309%
Cc1nc(NC(=O)c2cnccn2)ccc1Br -3.84%
CC(=O)[C@H]1CC[C@H]2[C@@H]3CCC4=CC(=O)CC[C@]4(C)[C@H]3CC[C@]12C -0.321%
Cc1c(CCC(=O)N[C@@H](CC(C)C)C(=O)O)c(=O)oc2cc3oc4c(c3cc12)CCCC4 -0.513%
CCCOc1ccccc1C1CC(=O)Nc2cc3c(cc21)OCCO3 (centres undefined) -24.4%
C=CCc1ccc(OCCOc2ccc(/C=N/n3cnnc3)cc2OCC)c(OC)c1 -0.818%
CCOC(=O)c1c(C)n(C)c2ccc(OC)c(NC(=O)CN3CCN(C(=O)c4ccco4)CC3)c12 -0.0869%
CNc1nc2c(N)ncnc2n1[C@H]1O[C@@H](CO)[C@H](O)[C@@H]1O -0.652%
CCN1C(=O)C(O)(C2COC(C)(C)CC2=O)c2cc(Br)ccc21 (centres undefined) -6.91%
CN1CCN(Cc2cc(COCc3ccccc3)c3cccnc3c2O)CC1 -1.23%
COc1ccc(NC(=O)CSc2nc(N)c(C(=O)Nc3ccc(N(C)C)cc3)s2)cc1 -2.29%
Cc1ccc(CCC(=O)Nc2ncc(Cc3cc(Cl)ccc3Cl)s2)o1 -0.804%
CCOc1ncccc1C(=O)N1CCN(c2cc(Cl)ccc2C)CC1 -5.75%
COc1cc(/C=C/c2ccc3cccc(O)c3n2)cc(OC)c1OC 122%
CCOc1ccccc1N1CSC2=C(C#N)C(c3c(OC)ccc4ccccc34)CC(=O)N2C1 (centres undefined) -2.24%
CCCNC(=O)c1ccc(-c2nn(C)c(=O)c3ccccc23)cc1 -1.61%
COc1ccc(-c2cnc3c(c2)CCC3(C#N)C#N)cc1 -4.01%
Cc1c(CCC(=O)N2CCC(C(=O)O)(c3ccccc3)CC2)c(=O)oc2cc3oc4c(c3cc12)CCCC4 -1.21%
COc1cc(NC(=O)COC(=O)Cc2ccc(-c3ccccc3)cc2)cc(OC)c1 -2.72%
CCCSc1nc(C)c(C(C)=O)cc1C#N -0.455%
COCCN(Cc1cc2cc(C)cc(C)c2nc1Cl)C(=O)Nc1ccccc1 -1.1%
CCOC(=O)c1ccc(-c2c(-c3cc(OC)c(OC)c(OC)c3)noc2C)cc1F -3.94%
CC(C)Oc1ccccc1C1CC(=O)Nc2cc3c(cc21)OCCO3 (centres undefined) -4.7%
CCN(CC)C(=S)NC(=O)c1ccc(F)cc1 -0.736%
CCOc1cc(/C=C2\CN(C)C/C(=C\c3ccc(O)c(OCC)c3)C2=O)ccc1O -16.9%
CCOC(=O)c1c(C)oc2c1cc(NS(=O)(=O)c1ccc(C(=O)O)cc1)c1ccccc12 -5.36%
COc1ccccc1-c1nnc(Nc2nc3c(OC)cccc3s2)o1 14.5%
CC1=C(C(=O)Nc2ccc(CC(=O)NCc3ccc(OC(C)C)cc3)cc2)SCCO1 -3%
CCc1ccc(NC(=O)C(C)OC(=O)/C=C/c2ccc(O)c(OC)c2)cc1 (centres undefined) -10.2%
COc1cc(C(=O)N/N=C(\C)Cc2ccccc2)cc(OC)c1OC -1.22%
COc1cc(/C=C2/S/C(=N/S(=O)(=O)c3ccccc3)NC2=O)c([N+](=O)[O-])cc1OC -6.81%
COc1ccccc1NC(=O)N1CCC(c2nc3cc(C)c(C)cc3[nH]2)CC1 -3.12%
CC1=C/C(=N\NC(=S)NCc2ccccc2)CC1 -3.6%
COc1cc(C(=O)N/N=C/c2sccc2C)cc(OC)c1OC -3.66%
CCCCC[C@H](O)/C=C/[C@@H]1[C@@H](C/C=C\CCCC(=O)O)[C@@H](O)C[C@H]1O -0.871%
Cc1cc(C)c2nc3sc(C(=O)N4CCOCC4)c(N)c3cc2c1 -8.28%
COc1ccc(CCNC(=O)c2cnc3scc(C)n3c2=O)cc1OC -0.161%
O=C(Oc1c(CN2CCOCC2)cc(Cl)c2cccnc12)c1ccccc1Cl -5.93%
COc1cc(C(=O)N/N=C/c2cc([N+](=O)[O-])cs2)cc(OC)c1OC -0.917%
CCOC(=O)C(C)Oc1cccc2c(=O)n(CC(=O)NCc3ccco3)ccc12 (centres undefined) -1.21%
Cc1ccc(NC(=S)N/N=C/c2c(Cl)cccc2Cl)c(C)c1 -4.26%
O=S1(=O)C=C(Sc2nc3cc(Cl)ccc3o2)c2ccccc21 1.19%
CCN(CC)c1ccc2c(c1)OC(N)=C(C#N)C2c1cccnc1 (centres undefined) -5.73%
COc1ccc(OCCOC(=O)c2[nH]c(C)c(C(C)=O)c2C)cc1 -0.836%
COc1ccc(C2CC(c3ccc(OC)c(OC)c3)=NN2C(=O)c2ccccc2)cc1 (centres undefined) -0.859%
Cc1[nH]n(C(N)=S)c(=O)c1N=Nc1ccc2ccccc2c1 -3.53%
CSc1nc(SCC(=O)NCc2ccco2)c2c3c(sc2n1)COC(C)(C)C3 -2.6%
Cc1ccccc1C(=O)N1CCC(C(=O)N2CCN(Cc3ccc4c(c3)OCO4)CC2)CC1 0.546%
N#CCSc1nc(N)c(C#N)c(C2CCCCC2)c1C#N -1.6%
O=C(Cc1cccs1)N/N=C/C=C/c1ccco1 -3.11%
CC[C@]12c3[nH]c4cc(CCC(=O)N(C)C)ccc4c3CCN1C(=O)[C@@H](CC(=O)NCC13CC4CC(CC(C4)C1)C3)C[C@@H]2C(=O)N1CCN(C(=O)c2ccco2)CC1 -3.16%
CCOc1ccccc1OCC(=O)N/N=C(\C)Cc1ccc(OC)cc1 -0.43%
O=C(CSc1cccc[n+]1[O-])c1ccccc1Br -1.23%
Cc1cccc(C(=O)N[C@H](C(=O)Nc2nc3ccccc3[nH]2)C(C)C)c1 -5.47%
CNC(=S)N/N=C(\C)c1cccc([N+](=O)[O-])c1 -0.379%
COc1cc(C(=O)NNC(=S)Nc2ccc(S(N)(=O)=O)cc2)cc(OC)c1OC -0.879%
CCCC(=O)Nc1ncnc2c1ncn2[C@@H]1O[C@@H]2COP(=O)(O)O[C@H]2[C@H]1OC(=O)CCC -0.475%
CC(C)(CNC(=O)CO/N=C1/C=C2CCC3C(C(O)C[C@@]4(C)C3CC[C@]4(O)C(=O)CO)[C@@]2(C)CC1)C(O)C(=O)O (some centres undefined) -1.46%
CC(/C=N/NC(=O)c1cc(-c2ccncc2)nc2ccccc12)=C\c1ccco1 -3.13%
COc1ccc(C(=O)N[C@H](C(=O)Nc2nc3ccccc3[nH]2)C(C)C)cc1 26%
Cc1ccc2[nH]c(C(=O)N/N=C/c3ccccc3C(=O)O)c(-c3ccccc3)c2c1 -1.78%

Potency, inactive:
S=C(Nc1ccccn1)c1ccccn1

— PubChem BioAssay AID651567 (National Center for Advancing Translational Sciences (NCATS), 2012)
